Measurements as given in PubChem BioAssay (NCI).
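A five-concentration, 48-hour dose response in 96-well plates underlies each endpoint, interpolated linearly between surrounding concentrations. At the GI50, growth is halved. TGI: concentration producing complete growth inhibition.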

Test system: NCI-H322M lung
Assay: NCI anticancer screen, dose series, 48 h

Row | Structure (SMILES) | GI50 [µM] | TGI [µM]
1 | CC(=C(c1ccc(OCCN2CCCCC2)cc1)c1ccc(OCCN2CCCCC2)cc1)c1ccccc1 | 8.21 | > 21.8
2 | COc1cc2c(c(OC)c1OC)C(=O)CC(c1cccc(NC(=O)c3cc([N+](=O)[O-])ccc3Cl)c1)O2 (stereo not given) | 22 | > 100
3 | O=C(NNc1nc2cc(C(F)(F)F)ccc2n2cccc12)c1cnccn1 | 0.162 | 2.11
4 | NCCCCn1c(SCCc2c[nH]c3ccccc23)nnc1-c1ccc2ccccc2n1 | 5.87 | 12.7
5 | COc1cc(/C=C/C(=O)c2cnn(-c3cc(=O)[nH]c4ccc(Cl)cc34)c2C)cc(OC)c1OC | 2.72 | 9.28
